This note sets out measurements from the BET-seq Pho4 binding data (Le et al. 2018).

The list shows a part of the results. These are noisy estimates, calculated here from bound and input reads.

In this assay the target is T1, Pho4 (S. cerevisiae) (UniProt P07270).
T1 sequence: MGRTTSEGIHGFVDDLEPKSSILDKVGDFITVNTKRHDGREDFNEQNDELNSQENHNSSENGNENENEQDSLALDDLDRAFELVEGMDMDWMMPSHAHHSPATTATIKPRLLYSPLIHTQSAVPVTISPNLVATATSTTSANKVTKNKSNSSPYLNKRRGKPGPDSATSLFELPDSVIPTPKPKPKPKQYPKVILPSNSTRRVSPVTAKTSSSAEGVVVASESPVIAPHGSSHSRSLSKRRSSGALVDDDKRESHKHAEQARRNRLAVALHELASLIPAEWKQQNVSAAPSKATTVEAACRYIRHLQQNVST
The assay is described as follows: relative binding free energy (BET-seq); higher = weaker binding. As to conditions: reference: library average.
Regarding GAATTCACGTGAGATG, the “relative binding free energy” value was determined as 0.49 kcal/mol.

With TGTAGCACGTGCTATG, the “relative binding free energy” value is -0.19 kcal/mol.

With TCAAGCACGTGAGTTG, the “relative binding free energy” value turned out to be 0.22 kcal/mol.

In the case of TGTAGCACGTGATTGA, the “relative binding free energy” value is -0.13 kcal/mol.

Consider TATTGCACGTGCGAGT, for which the “relative binding free energy” value came to 0.01 kcal/mol.

With TAGATCACGTGTGTGA, the “relative binding free energy” value came out at 0.08 kcal/mol.

Turning to GCTATCACGTGGTGTT, the “relative binding free energy” value was determined as 0.15 kcal/mol.

As for AGGCACACGTGTGAGG, the “relative binding free energy” value is 0.04 kcal/mol.

Take TAGATCACGTGAGTGA: the “relative binding free energy” value stood at 0.25 kcal/mol.

Take GGCGGCACGTGCCTGG: the “relative binding free energy” value is -0.21 kcal/mol.

Consider AATGGCACGTGTTACG, for which the “relative binding free energy” value was -0.05 kcal/mol.

Consider ATTTGCACGTGTGGGG, for which the “relative binding free energy” value came out at 0.08 kcal/mol.

For GTCAGCACGTGGGGTC, the “relative binding free energy” value was -0.18 kcal/mol.

Take AGAGGCACGTGGGTTG: the “relative binding free energy” value is -0.12 kcal/mol.

On to GTTGACACGTGAGTCA, for which the “relative binding free energy” value stood at 0.31 kcal/mol.

For AATTACACGTGATGCT, the “relative binding free energy” value worked out at 0.19 kcal/mol.

In the case of AGTGGCACGTGTGGGA, the “relative binding free energy” value was -0.09 kcal/mol.

TTTCGCACGTGGTCGG: the “relative binding free energy” value was -0.18 kcal/mol.

As to GCTGACACGTGAAGGT, the “relative binding free energy” value was determined as 0.32 kcal/mol.

ACGGACACGTGTGTTG: the “relative binding free energy” value was determined as 0.13 kcal/mol.

As to GTAGGCACGTGGGATG, the “relative binding free energy” value is -0.17 kcal/mol.

Regarding TAAGTCACGTGGGCTA, the “relative binding free energy” value is -0.01 kcal/mol.

For the sequence TTTCACACGTGGTAGT, the “relative binding free energy” value amounted to 0.14 kcal/mol.

GTCCGCACGTGTGGTG: the “relative binding free energy” value is -0.13 kcal/mol.

With TTGGGCACGTGGGTAT, the “relative binding free energy” value was -0.16 kcal/mol.

With TGTATCACGTGTGAGA, the “relative binding free energy” value was found to be 0.38 kcal/mol.

For the sequence GGAGTCACGTGCGTTT, the “relative binding free energy” value was 0.2 kcal/mol.

Take CAATACACGTGGGGGT: the “relative binding free energy” value was -0.07 kcal/mol.

As for TTATTCACGTGGTGCG, the “relative binding free energy” value was determined as 0.24 kcal/mol.

For TTCGTCACGTGTATGC, the “relative binding free energy” value worked out at 0 kcal/mol.

As to CCAGTCACGTGGGGGG, the “relative binding free energy” value was -0.13 kcal/mol.

Regarding TGAGGCACGTGTAAAA, the “relative binding free energy” value is 0.05 kcal/mol.

On to TCGTGCACGTGGGTCT, for which the “relative binding free energy” value was -0.23 kcal/mol.

Regarding ATTCGCACGTGTTGAG, the “relative binding free energy” value is -0.06 kcal/mol.

For CGGAGCACGTGTTGGG, the “relative binding free energy” value is 0 kcal/mol.

Consider GGCGACACGTGGGAGA, for which the “relative binding free energy” value stood at 0.08 kcal/mol.

For TGCCACACGTGTGGTT, the “relative binding free energy” value is 0.02 kcal/mol.

As for AAGTGCACGTGTATAT, the “relative binding free energy” value was determined as 0.02 kcal/mol.

On to ACATTCACGTGATAGT, for which the “relative binding free energy” value worked out at 0.29 kcal/mol.

Take AGGTTCACGTGATATA: the “relative binding free energy” value stood at 0.27 kcal/mol.

On to TGGTCCACGTGTTCGG, for which the “relative binding free energy” value worked out at 0.08 kcal/mol.

TGAAACACGTGTGGAT: the “relative binding free energy” value was 0.02 kcal/mol.

For the sequence AGGAACACGTGAGGCG, the “relative binding free energy” value came out at 0.3 kcal/mol.

In the case of CGGCTCACGTGGTTAG, the “relative binding free energy” value was 0.19 kcal/mol.

With GGTCGCACGTGGTTAT, the “relative binding free energy” value is -0.04 kcal/mol.

As for GGTCGCACGTGCGGGT, the “relative binding free energy” value was -0.05 kcal/mol.

As to TTGACCACGTGATGTT, the “relative binding free energy” value was 0.09 kcal/mol.

GTCGGCACGTGTTTGT: the “relative binding free energy” value is -0.01 kcal/mol.

With CTGTGCACGTGCGTTG, the “relative binding free energy” value worked out at 0.04 kcal/mol.

For CGAAGCACGTGGAGGT, the “relative binding free energy” value was -0.15 kcal/mol.

Consider AATAACACGTGGTTTA, for which the “relative binding free energy” value is -0.01 kcal/mol.

Regarding AGTTCCACGTGAGAGT, the “relative binding free energy” value stood at 0.31 kcal/mol.

Take CGTATCACGTGATTGG: the “relative binding free energy” value worked out at 0.08 kcal/mol.

Turning to TTTATCACGTGGTAAC, the “relative binding free energy” value amounted to 0.2 kcal/mol.

In the case of TAATTCACGTGGTGAT, the “relative binding free energy” value worked out at 0.19 kcal/mol.

In the case of AGGTTCACGTGATAAT, the “relative binding free energy” value was determined as 0.4 kcal/mol.

As for CTTGGCACGTGCAGGT, the “relative binding free energy” value is -0.11 kcal/mol.

With GAAGACACGTGGTAGT, the “relative binding free energy” value was -0.1 kcal/mol.

Turning to TAGGTCACGTGGGGCA, the “relative binding free energy” value is -0.09 kcal/mol.

Take CTGTACACGTGTGGTG: the “relative binding free energy” value worked out at 0.03 kcal/mol.

For the sequence TGTAGCACGTGTCTGA, the “relative binding free energy” value is -0.09 kcal/mol.

On to GTGGACACGTGAGAGG, for which the “relative binding free energy” value was 0.31 kcal/mol.

Take TTTCACACGTGTTCTT: the “relative binding free energy” value was found to be 0.08 kcal/mol.

Take GGTATCACGTGCTTGT: the “relative binding free energy” value was determined as 0.2 kcal/mol.

Regarding TATTACACGTGCTTGT, the “relative binding free energy” value is -0.06 kcal/mol.

AGCTACACGTGTGGGC: the “relative binding free energy” value came to 0.22 kcal/mol.

With GCGGTCACGTGCAGTG, the “relative binding free energy” value was 0.06 kcal/mol.

For the sequence GTAGTCACGTGAGTTC, the “relative binding free energy” value was determined as 0.35 kcal/mol.

As to GGATGCACGTGAGGCA, the “relative binding free energy” value worked out at 0.22 kcal/mol.

Take GAGTACACGTGTTGAT: the “relative binding free energy” value came to 0.19 kcal/mol.

With CAGGTCACGTGAGGGT, the “relative binding free energy” value was determined as 0.19 kcal/mol.

Turning to AAGTCCACGTGGGGTA, the “relative binding free energy” value is -0.2 kcal/mol.

For ATAGTCACGTGGTATG, the “relative binding free energy” value is 0.04 kcal/mol.

Regarding TGGTCCACGTGGGATG, the “relative binding free energy” value is -0.15 kcal/mol.

For TTTATCACGTGTAATG, the “relative binding free energy” value was determined as 0.2 kcal/mol.

As to ACTTACACGTGGGGGA, the “relative binding free energy” value was 0.02 kcal/mol.

Consider GGGCTCACGTGTTGTA, for which the “relative binding free energy” value is 0.29 kcal/mol.

TACGGCACGTGGTGTG: the “relative binding free energy” value was -0.07 kcal/mol.

For the sequence TTTAGCACGTGAAGGC, the “relative binding free energy” value was 0.47 kcal/mol.

On to TTTGCCACGTGTGTCT, for which the “relative binding free energy” value was 0.04 kcal/mol.

TATTGCACGTGCTTGA: the “relative binding free energy” value worked out at 0 kcal/mol.

For the sequence GGAATCACGTGGAGGC, the “relative binding free energy” value is 0.19 kcal/mol.

TAGTGCACGTGGAGAG: the “relative binding free energy” value is -0.01 kcal/mol.

As to TGTGCCACGTGTGTCG, the “relative binding free energy” value is -0.1 kcal/mol.

Consider ACGTTCACGTGGTATG, for which the “relative binding free energy” value was 0.17 kcal/mol.

Turning to GCCATCACGTGTGGGG, the “relative binding free energy” value worked out at 0.21 kcal/mol.

With AGGCGCACGTGAGTTA, the “relative binding free energy” value was 0.11 kcal/mol.

As for TATTTCACGTGCCGGT, the “relative binding free energy” value turned out to be 0.18 kcal/mol.

Regarding TCTTTCACGTGGATGA, the “relative binding free energy” value worked out at 0.29 kcal/mol.

Consider GTCGGCACGTGGTTGA, for which the “relative binding free energy” value is -0.06 kcal/mol.

Consider ATGTTCACGTGATTGC, for which the “relative binding free energy” value stood at 0.31 kcal/mol.

As to CGTTTCACGTGCAGGT, the “relative binding free energy” value worked out at 0.1 kcal/mol.

As for AGTAACACGTGATGGT, the “relative binding free energy” value amounted to 0.11 kcal/mol.

On to GGTGTCACGTGGTGGA, for which the “relative binding free energy” value came out at 0.15 kcal/mol.

For the sequence ATTGCCACGTGGAGCT, the “relative binding free energy” value was determined as 0.14 kcal/mol.

Regarding GATTTCACGTGAGGGC, the “relative binding free energy” value is 0.43 kcal/mol.

Take ATAGGCACGTGGATAT: the “relative binding free energy” value is -0.23 kcal/mol.

On to ACCGGCACGTGTGGGA, for which the “relative binding free energy” value worked out at 0.11 kcal/mol.

For CGATTCACGTGGGAGG, the “relative binding free energy” value stood at 0.28 kcal/mol.

GCGAACACGTGGGGTT: the “relative binding free energy” value is -0.01 kcal/mol.

Take AGCGACACGTGTGGAG: the “relative binding free energy” value worked out at 0.16 kcal/mol.

In the case of TATAACACGTGCGTTG, the “relative binding free energy” value is -0.1 kcal/mol.

For the sequence TTTGGCACGTGCGCTA, the “relative binding free energy” value was -0.19 kcal/mol.

As to GAGGTCACGTGAGCGT, the “relative binding free energy” value was determined as 0.17 kcal/mol.

Consider TGTTGCACGTGTTCTA, for which the “relative binding free energy” value was -0.01 kcal/mol.

Take GCGGTCACGTGGTTAA: the “relative binding free energy” value was 0.15 kcal/mol.

For AGCAGCACGTGATGGG, the “relative binding free energy” value was -0.03 kcal/mol.

Turning to GGGTTCACGTGAGATG, the “relative binding free energy” value came out at 0.44 kcal/mol.

On to GTGTACACGTGTTTGC, for which the “relative binding free energy” value was -0.05 kcal/mol.

Turning to GAATACACGTGGCGGG, the “relative binding free energy” value came to 0.11 kcal/mol.

Regarding TTTCACACGTGAGTGG, the “relative binding free energy” value is 0.45 kcal/mol.

As for GGTTCCACGTGGGTAT, the “relative binding free energy” value was found to be 0.01 kcal/mol.

For GTATGCACGTGGATCG, the “relative binding free energy” value is 0.13 kcal/mol.

TTTGCCACGTGTAGCG: the “relative binding free energy” value was 0.05 kcal/mol.

Regarding GGCTGCACGTGTTGCA, the “relative binding free energy” value worked out at 0.07 kcal/mol.
